Measurements: PubChem BioAssay AID686979 (National Center for Advancing Translational Sciences (NCATS), 2013)
Screen size: about 420,000 compounds; about 50,000 (12%) were called active. Inconclusive means that the source gave no clear call. Such entries were picked first, then a sample of the others. The call rests on the fitted dose curve; in most records, active means well fitted inhibition curve with a large enough effect; inconclusive means small, poorly fitted or top-dose-only effect; inactive means flat fitted curve, though single readings scatter. Potencies of inconclusive entries are left out as doubtful fits. Where a structure was tested more than once in an assay, its records may differ in their call.

Test: qHTS for Inhibitors of human tyrosyl-DNA phosphodiesterase 1 (TDP1): qHTS in cells in presence of CPT; further: nearly all actives have a fitted effect of over 55% in size
Details: chicken DT40 Tdp1-/-;hTDP1 cells + 20 nM CPT, ATP luminescence, 48 h; activity change, negative = growth inhibition: at 46.2 µM (top of the series)
Method in brief: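 Chicken DT40 Tdp1-/- cells stably complemented with human TDP1 were seeded at 400 cells/well in medium containing 20 nM camptothecin, exposed to pin-transferred compounds, and grown at 37 °C for at least 48 hr. Viability was read as ATP luminescence.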
On the % scale 0 is the no-effect control and ±100 the full control effect; potency means the concentration at half of the fitted maximal effect; tags describe the fitted curve by direction and shape.

Row | Compound | activity change, negative = growth inhibition | Potency
1 | CSc1ccccc1C(=O)NCC(c1ccco1)N1CCCCC1 (stereo unspecified) | inactive: -2.69% | –
2 | CCOc1ccccc1C1CC(=O)NC2=C1C(=O)CC(C)(C)C2 (stereo unspecified) | inactive: -23.3% | –
3 | CN(C)C(=O)/C(C#N)=C\c1cc(Br)c(Sc2ccc(Cl)cc2)o1 | – | inconclusive [inhibitor, single point]
4 | Cc1nc2ccccc2c(=O)n1NC(=O)c1c(O)c2c(n(CC(C)C)c1=O)CCCC2 | – | inconclusive [inhibitor, single point]
5 | COc1ccc(C(CNC(=O)c2cc(S(=O)(=O)NCc3ccco3)ccc2C)N(C)C)cc1 (stereo unspecified) | inactive: -23.8% | –
6 | CN1CCN(C2Cc3ccc(Cl)cc3Sc3ccc(F)cc32)CC1 (stereo unspecified) | – | inconclusive [inhibitor, single point]
7 | O=C(/C=C/c1ccccc1)NCCSCc1ccccc1 | – | inconclusive [inhibitor, single point]
8 | Cc1ccc(CSc2nsc(C)c2C#N)cc1 | – | inconclusive [inhibitor, single point]
9 | Cc1c(NC(=O)c2ccc3c(c2)OCO3)cccc1-c1nc2ccccc2o1 | – | inconclusive [inhibitor, single point]
10 | Cc1cnc(NC(=O)c2ccc(-c3ccc([N+](=O)[O-])cc3)o2)s1 | inactive: -0.279% | –
11 | Cc1cc(C)cc(NC(=O)CCCSc2nc3ccccc3[nH]2)c1 | – | inconclusive [inhibitor, single point]
12 | Cc1c(NC(=O)C(C)OC(=O)COc2ccccc2)c(=O)n(-c2ccccc2)n1C (stereo unspecified) | inactive: 18.7% | –
13 | CC(C)NS(=O)(=O)c1ccc(NC(=S)NC(=O)c2ccc(-c3ccccc3)cc2)cc1 | – | active: 11.2 µM
14 | CCn1c(SCc2ccccc2)nnc1-c1nonc1NC(C)=O | inactive: -24.6% | –
15 | CCN1CCN(c2c(Cl)cccc2NC(=O)c2ccc([N+](=O)[O-])cc2)CC1 | inactive: -28.9% | –
16 | Cc1ccccc1OCc1ccc(C(=O)N2CC(C)OC(C)C2)o1 (stereo unspecified) | – | inconclusive [inhibitor, full curve, poor fit]
17 | Cc1occc1C(=O)OCC(=O)Nc1ccc(F)cc1 | – | inconclusive [inhibitor, single point]
18 | CCCCCCN(CCCCCC)C(=O)Cc1c(-c2ccc(F)cc2)[nH]c2ccccc12 | – | active: 9.44 µM
19 | COc1ccc(C(=O)Nc2cccc(NC(=O)c3cccs3)c2)cc1 | – | inconclusive [inhibitor, single point]
20 | O=C(/C=C/c1cccc(F)c1)N1CCN(c2ncccn2)CC1 | – | inconclusive [inhibitor, single point]
21 | Cc1ccc(CCC(=O)Nc2ccc(CC(=O)O)cc2)o1 | – | inconclusive [inhibitor, single point]
22 | O=c1nc(/C=C/c2cc([N+](=O)[O-])ccc2Cl)cc(C(F)(F)F)[nH]1 | – | inconclusive [inhibitor, single point]
23 | CCc1nc2ccc(C(=O)NCCN(C)C)cn2c1N(CC)CCOC | inactive: -1.44% | –

Row | Compound | activity change, negative = growth inhibition | Potency
24 | Cc1ccc(C)c(OCC(=O)N(Cc2ccccc2)c2c(N)n(Cc3ccccc3)c(=O)[nH]c2=O)c1 | inactive: -16.9% | –
25 | COc1ccc(C(CC(=O)Nc2ccc(F)c(Cl)c2)N2Cc3ccccc3C2=O)cc1OC (stereo unspecified) | – | inconclusive [inhibitor, single point]
26 | Cc1cc2ccccn2c1C(=O)c1ccc(C#N)cc1 | – | inconclusive [inhibitor, single point]
27 | COc1ccc(C(=O)N/C(=C\c2ccco2)C(=O)NC2CCS(=O)(=O)C2)cc1 (stereo unspecified) | – | inconclusive [inhibitor, single point]
28 | CCOC(=O)C1CCCN(C(=O)Cn2ncc3c([nH]c4ccccc43)c2=O)C1 (stereo unspecified) | – | inconclusive [inhibitor, single point]
29 | Clc1ccccc1-c1nn2c(Cn3cnc4ccccc43)nnc2s1 | – | inconclusive [inhibitor, single point]
30 | CC(C)c1c(Cl)c(O)c(-c2ccccc2)c(=O)n1-c1ccc(F)cc1 | – | inconclusive [inhibitor, single point]
31 | O=C(COC(=O)c1ccccc1O)NCc1ccco1 | inactive: -1.93% | –
32 | CCC1=C(CC2NCCc3ccccc32)CC2c3cc(OC)c(OC)cc3CCN2C1 (stereo unspecified) | – | active: 1.16 µM
33 | CCCCCCCNC(=O)C1(CC2CC(c3cccc(Br)c3)=NO2)CCNCC1 (stereo unspecified) | – | active: 13 µM
34 | Cc1cccc(C)c1NC(=O)C1(C)CSCC(=O)N1CCc1ccccc1F (stereo unspecified) | inactive: -18.7% | –
35 | O=C(COc1ccc(S(=O)(=O)NC2CCCCC2)cc1)N1CCN(c2cccc(Cl)c2)CC1 | – | inconclusive [inhibitor, single point]
36 | N#C/C(=C(/O)C(Cl)c1ccccc1)c1nc2ccccc2s1 (stereo unspecified) | – | active: 6.51 µM
37 | COc1ccc(N2C(=O)C3C(C2=O)C3(c2ccccc2)c2ccccc2)cc1 (stereo unspecified) | – | inconclusive [inhibitor, single point]
38 | CN1/C(=C\C(=O)COC(=O)c2ccco2)C(C)(C)c2ccccc21 | – | inconclusive [inhibitor, partial curve, poor fit]
39 | Cc1ccc(C(c2nnnn2CCc2ccccc2)N2CCC(C)CC2)cc1 (stereo unspecified) | – | inconclusive [inhibitor, single point]
40 | NCCCn1c(C(=O)c2ccc(Cl)cc2)c2ccc(C(F)(F)F)cc2[n+]1[O-] | – | inconclusive [inhibitor, single point]
41 | CC(=O)N(C)c1ccc(NC(=O)Cc2cccc3ccccc23)cc1 | inactive: 10.6% | –
42 | Cc1ccc(N2CC3=C(C2=O)C(c2ccc(Br)cc2)NC(=O)N3C)cc1 (stereo unspecified) | – | inconclusive [inhibitor, single point]
43 | O=C(Nc1nnc(-c2ccc(Cl)cc2)o1)C1CCCCC1 | – | inconclusive [inhibitor, partial curve, poor fit]
44 | Cc1cc(C)cc(N=Cc2[nH]c3ccc(Br)c(Cl)c3c2O)c1 | – | active: 16.4 µM
45 | Cc1cccnc1C(NC(=O)C1CCN(Cc2ccc(Cl)cc2)CC1)c1ccc(F)cc1 (stereo unspecified) | – | active: 25.9 µM
46 | CCn1c(=O)cc(SCC(=O)Nc2ccc(C)c(F)c2)c2ccccc21 | – | inconclusive [inhibitor, single point]
